± gives the standard error. This sample is rich in variants without activity.
B1: glmS ribozyme (parent)
chain: AUAAAAGCGCCAGAACUACAGAAAUGUAGUUGACGAGGAGGAGGUUUAUCGAAUUUUCGGCGGAUGCCUCCAAA

Tests used:
Settings in all cases: with glucosamine-6-phosphate
[1] = variants of: B1; assay: self-cleavage kobs at 640 uM GlcN6P; higher = faster cleavage; RNA array
Summary of the method: (§1)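 Weighted Michaelis–Menten fits across concentrations supplied kcat and KM, based on kobs from one- or two-exponential decay fits to normalised per-tile medians. The data came from barcoded ribozyme variants transcribed in situ by E. coli RNA polymerase on sequenced MiSeq chips and tracked at 37 °C by a hybridised Cy3 probe. Glucosamine-6-phosphate (40 μM to 10 mM) in HEPES/KCl/Mg(OAc)2 buffer was flowed in.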

[2] = variants of: B1; assay: self-cleavage kobs at 2500 uM GlcN6P; higher = faster cleavage; RNA array
Summary of the method: as §1

[3] = variants of: B1; assay: self-cleavage kobs at 10000 uM GlcN6P; higher = faster cleavage; RNA array
Summary of the method: as §1

[4] = variants of: B1; assay: self-cleavage kobs at 160 uM GlcN6P; higher = faster cleavage; RNA array
Summary of the method: as §1

Row | Variant | self-cleavage kobs at 640 uM GlcN6P [1] [s⁻¹] | self-cleavage kobs at 2500 uM GlcN6P [2] [s⁻¹] | self-cleavage kobs at 10000 uM GlcN6P [3] [s⁻¹] | self-cleavage kobs at 160 uM GlcN6P [4] [s⁻¹]
1 | C16G U45C | 7.2e-05 ± 2.1e-05 | 0.000367 ± 9.7e-05 | 0.000243 ± 3.7e-05 | 
2 | C16G U46C U49C G60C C70A | < 1e-05 |  |  | 
3 | C16U A33C G38C U45A C67U | < 1e-05 |  |  | < 1e-05
4 | C16U A42C A48U C67A | < 1e-05 |  |  | < 1e-05
5 | C16U A64G U65A C70U | 0.00104 ± 0.00025 | 0.000964 ± 0.00024 |  | 8.56e-05 ± 2.7e-05
6 | C16U C34G G41U | < 1e-05 |  |  | 
7 | C16U G29U G63A | < 1e-05 |  |  | 
8 | C16U G32C G35A C68A | < 1e-05 | < 1e-05 |  | 
9 | C16U G37C A39U U49G | < 1e-05 | < 1e-05 |  | 
10 | C16U G63C U65G | < 1e-05 |  |  | 
11 | C16U U30A A42U | < 1e-05 |  |  | 
12 | C16U U30A G43A C70A | < 1e-05 |  |  | < 1e-05
13 | C16U U31G C34U | < 1e-05 |  |  | 
14 | C16U U46C A53U | 0.000328 ± 7.3e-05 | 0.00078 ± 0.00025 |  | 
15 | C16U U46C U55A C70U | 0.00101 ± 0.00034 | 0.00219 ± 0.0006 | 0.00226 ± 0.00047 | 
16 | C19A C34G A39C | < 1e-05 | < 1e-05 |  | < 1e-05
17 | C19A G35A | < 1e-05 | < 1e-05 |  | 
18 | C19A G35U G37C | < 1e-05 |  |  | 
19 | C19U G41C A48G U54G U56A | < 1e-05 |  |  | 
20 | G21U C70G | 0.000253 ± 5.1e-05 | 0.000154 ± 3.9e-05 | 9.23e-05 ± 2.3e-05 | 

Row | Variant | self-cleavage kobs at 640 uM GlcN6P [1] [s⁻¹] | self-cleavage kobs at 2500 uM GlcN6P [2] [s⁻¹] | self-cleavage kobs at 10000 uM GlcN6P [3] [s⁻¹] | self-cleavage kobs at 160 uM GlcN6P [4] [s⁻¹]
21 | G21U C71G | 0.000218 ± 3.9e-05 | 0.000294 ± 5.9e-05 |  | 0.000226 ± 5.1e-05
22 | G21U U69G | 6.25e-05 ± 1.4e-05 | 9.89e-05 ± 2e-05 |  | 
23 | A23U C34G G44C | < 1e-05 |  |  | 
24 | A24C U30C G35C G40C U57A C58G | < 1e-05 |  |  | < 1e-05
25 | U25C A52G G59U | < 1e-05 |  |  | < 1e-05
26 | G29A A39C C61G | < 1e-05 |  | < 1e-05 | < 1e-05
27 | G29A G32A G35C G38A A64U | < 1e-05 |  |  | 
28 | G29A G37A | 0.000124 ± 3.6e-05 | 0.000156 ± 5.7e-05 |  | 
29 | G29A G38U | < 1e-05 | < 1e-05 |  | < 1e-05
30 | G29A G40A U55A A64U | < 1e-05 |  |  | 
31 | G29A G40C U55A U56G C67U | < 1e-05 | < 1e-05 |  | < 1e-05
32 | G29A G43U A48C | < 1e-05 |  | < 1e-05 | 
33 | G29A G51U | < 1e-05 | < 1e-05 | < 1e-05 | 
34 | G29A G63C C70G | 0.000155 ± 4.1e-05 | 7.4e-05 ± 2.1e-05 |  | 7.77e-05 ± 3e-05
35 | G29A U31C C34U | < 1e-05 | < 1e-05 |  | < 1e-05
36 | G29C A33G U46G | < 1e-05 |  |  | 
37 | G29C A36G | < 1e-05 | < 1e-05 | < 1e-05 | 
38 | G29C C34G A36C | < 1e-05 | < 1e-05 |  | 
39 | G29C G37C C58A | < 1e-05 |  |  | 
40 | G29C G59U | < 1e-05 |  |  | < 1e-05

Row | Variant | self-cleavage kobs at 640 uM GlcN6P [1] [s⁻¹] | self-cleavage kobs at 2500 uM GlcN6P [2] [s⁻¹] | self-cleavage kobs at 10000 uM GlcN6P [3] [s⁻¹] | self-cleavage kobs at 160 uM GlcN6P [4] [s⁻¹]
41 | G29C U30G A42U G62A | < 1e-05 | < 1e-05 |  | 
42 | G29C U31C G37A | < 1e-05 |  |  | 
43 | G29C U49C C50G G51U U65C | < 1e-05 | < 1e-05 |  | 
44 | G29C U57A | < 1e-05 |  |  | 
45 | G29U A33U G35A A53U | < 1e-05 | < 1e-05 |  | 
46 | G29U A36G U57G | < 1e-05 |  |  | 
47 | G29U A42C | < 1e-05 |  | < 1e-05 | < 1e-05
48 | G29U A53C | 0.00015 ± 7.4e-05 |  |  | 
49 | G29U C34U G41U U54A | < 1e-05 | < 1e-05 |  | 
50 | G29U C34U U55A | < 1e-05 | < 1e-05 |  | 
51 | G29U C58A | 5.13e-05 ± 1e-05 | 0.000103 ± 1e-05 | 0.000231 ± 3e-05 | 3.39e-05 ± 1.2e-05
52 | G29U G32A G37U G66A | < 1e-05 |  |  | < 1e-05
53 | G29U G32U G44C U65C | < 1e-05 |  |  | 
54 | G29U G37A U49A C58G G62U | < 1e-05 |  |  | 
55 | G29U G37C A42C U46A | < 1e-05 |  |  | < 1e-05
56 | G29U G37U G40A G44U A52U C67G | < 1e-05 |  |  | 
57 | G29U G38C A42G | < 1e-05 | < 1e-05 |  | 
58 | G29U G38C G41U G63C C70G | < 1e-05 | < 1e-05 |  | 
59 | G29U G41A U57A G66U | < 1e-05 | < 1e-05 |  | < 1e-05
60 | G29U G44C C68U | < 1e-05 | < 1e-05 |  | 

Source: the supplement of paper PMC7125110
